The text below walks through data of patent US20190100594A1 (INHIBRX, published 2019).

Assay [1] concerns the target T1, human GITR extracellular domain human IgG1 fusion protein (GITR-Fc) (human, UniProt Q9Y5U5 26-162, biotinylated (site not stated)).
T1 construct: extracellular domain; The protein was captured on the SPR chip through biotin; also called human GITR-Fc; not shown: human IgG1 Fc portion of the fusion
T1 sequence (looked up): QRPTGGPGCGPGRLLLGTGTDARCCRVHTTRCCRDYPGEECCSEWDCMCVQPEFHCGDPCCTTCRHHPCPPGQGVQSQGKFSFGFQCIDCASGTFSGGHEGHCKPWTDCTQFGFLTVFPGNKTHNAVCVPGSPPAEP
The assay can be described thus: SPR, biotinylated GITR-Fc captured on chip, binder injected at 0-600 nM. The protocol: (§1) The binding affinities of the GITR-targeting molecule referred to herein as bivalent hzC06v3.9-hIgG1 or 2×hzC06v3.9-IgG1 Fc (SEQ ID NO: 93) for human and cynomolgus GITR extracellular domain human IgG1 fusion protein (GITR-Fc) were determined by surface plasmon resonance. Briefly, biotinylated human and cynomolgus GITR-Fc were captured on the chip surface and then bivalent hzC06v3.9-hIgG1 was injected at 10 concentrations (0 nM-600 nM) at 40 ul/min for 120 seconds.
(In SPR one partner is held on a chip, and binding of the other changes the refractive index at the surface.)

In assay [2] the target is T2, cynomolgus GITR extracellular domain human IgG1 fusion protein (GITR-Fc) (cynomolgus; human).
T2 construct: extracellular domain; The protein was captured on the SPR chip through biotin; also called cynomolgus GITR-Fc
The description is as above. The protocol:
as §1

The target of assay [3] is T3, GITR on activated primary human T cells.
T3 construct: GITR is the target of the anti-GITR molecule
T3 chain: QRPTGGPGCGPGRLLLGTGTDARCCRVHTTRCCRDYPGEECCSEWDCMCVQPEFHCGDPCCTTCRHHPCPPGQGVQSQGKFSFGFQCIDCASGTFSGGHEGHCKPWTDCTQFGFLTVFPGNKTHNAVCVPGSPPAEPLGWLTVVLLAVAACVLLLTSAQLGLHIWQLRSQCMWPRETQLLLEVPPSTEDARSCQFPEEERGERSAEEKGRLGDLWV
Nature of the assay: flow cytometry on in vitro activated primary human CD4 T cells (three donors), anti-hIgG secondary antibody. The protocol:
Total PBMC or purified Treg isolated by fluorescence-activated cell sorting were prepared from healthy human donors. The cells were activated in vitro with anti-CD3 and anti-CD28 supplemented with recombinant human IL2. The cells were incubated with varying concentrations of tetravalent hzC06-hIgG1 and a surface phenotyping antibody cocktail. Samples were then washed and stained with a fluorescently-labeled anti-hIgG secondary antibody and then assessed by flow cytometry. Activated CD4 T cells were identified by staining with CD3, CD4, and CD25. Results of these studies are shown in FIG. 7 for activated CD4 T cells from three donors (closed symbols, solid lines) and activated Treg from two donors (open symbols, dashed lines).
A general note: In flow cytometry, cells or beads pass a laser one at a time.

B1: 2×hzC06v3.9-IgG1 Fc (SEQ ID NO: 93) (Fc fusion)
chain: EVQLLESGGGEVQPGGSLRLSCAASGSVFSIDAMGWYRQAPGKQRELVAVLSGISSAKYAASAPGRFTISRDNAKNTVYLQMSSLRAEDTAVYYCYADVSTGWGRDAHGYWGQGTLVTVKPGGSGGSEVQLLESGGGEVQPGGSLRLSCAASGSVFSIDAMGWYRQAPGKQRELVAVLSGISSAKYAASAPGRFTISRDNAKNTVYLQMSSLRAEDTAVYYCYADVSTGWGRDAHGYWGQGTLVTVKPGGGG[human IgG1 Fc not printed]
notes: also called bivalent hzC06v3.9-hIgG1; 2x hzC06 IgG1-Fc
As a reminder, the Kd is the free concentration of one partner at which half of the binding sites on the other are occupied at equilibrium, for simple one-to-one binding. Read a low Kd as tighter binding. The term koff denotes a measure of how fast the partners let go of each other. High values mean a short-lived complex, low ones a long-lived complex. Broadly, the kon is the rate constant with which the complex forms. Read a high kon as faster complex formation. By EC50 (read off the curve) is commonly meant the concentration giving half of the maximal effect. Read a high EC50 (read off the curve) as a less potent agent. In assay [1], B1 returned a Kd of 6.4 nM, a koff of 0.00412 s⁻¹ and a kon of 640000 M⁻¹ s⁻¹. In assay [2], this molecule came in with a Kd of 87.1 nM, a koff of 0.0106 s⁻¹ and a kon of 122000 M⁻¹ s⁻¹. Moreover, in assay [3], the half-maximal effective concentration (EC50 (read off the curve)) was around 0.2 nM.
